# Results: article PMC4336329 (PLoS ONE, 2015)
# About 2,200 (0.71%) of roughly 310,000 compounds showed an effect of 50% or more. Effects have a minus sign here. This is one part of the list.
# Molecular target: human ether-à-go-go-related gene (hERG) potassium channel (human, UniProt Q12809)
# Experiment: primary screen, population patch clamp on CHO cells stably expressing hERG
# human ether-à-go-go-related gene (hERG) potassium channel, sequence (Q12809 whole entry, looked up): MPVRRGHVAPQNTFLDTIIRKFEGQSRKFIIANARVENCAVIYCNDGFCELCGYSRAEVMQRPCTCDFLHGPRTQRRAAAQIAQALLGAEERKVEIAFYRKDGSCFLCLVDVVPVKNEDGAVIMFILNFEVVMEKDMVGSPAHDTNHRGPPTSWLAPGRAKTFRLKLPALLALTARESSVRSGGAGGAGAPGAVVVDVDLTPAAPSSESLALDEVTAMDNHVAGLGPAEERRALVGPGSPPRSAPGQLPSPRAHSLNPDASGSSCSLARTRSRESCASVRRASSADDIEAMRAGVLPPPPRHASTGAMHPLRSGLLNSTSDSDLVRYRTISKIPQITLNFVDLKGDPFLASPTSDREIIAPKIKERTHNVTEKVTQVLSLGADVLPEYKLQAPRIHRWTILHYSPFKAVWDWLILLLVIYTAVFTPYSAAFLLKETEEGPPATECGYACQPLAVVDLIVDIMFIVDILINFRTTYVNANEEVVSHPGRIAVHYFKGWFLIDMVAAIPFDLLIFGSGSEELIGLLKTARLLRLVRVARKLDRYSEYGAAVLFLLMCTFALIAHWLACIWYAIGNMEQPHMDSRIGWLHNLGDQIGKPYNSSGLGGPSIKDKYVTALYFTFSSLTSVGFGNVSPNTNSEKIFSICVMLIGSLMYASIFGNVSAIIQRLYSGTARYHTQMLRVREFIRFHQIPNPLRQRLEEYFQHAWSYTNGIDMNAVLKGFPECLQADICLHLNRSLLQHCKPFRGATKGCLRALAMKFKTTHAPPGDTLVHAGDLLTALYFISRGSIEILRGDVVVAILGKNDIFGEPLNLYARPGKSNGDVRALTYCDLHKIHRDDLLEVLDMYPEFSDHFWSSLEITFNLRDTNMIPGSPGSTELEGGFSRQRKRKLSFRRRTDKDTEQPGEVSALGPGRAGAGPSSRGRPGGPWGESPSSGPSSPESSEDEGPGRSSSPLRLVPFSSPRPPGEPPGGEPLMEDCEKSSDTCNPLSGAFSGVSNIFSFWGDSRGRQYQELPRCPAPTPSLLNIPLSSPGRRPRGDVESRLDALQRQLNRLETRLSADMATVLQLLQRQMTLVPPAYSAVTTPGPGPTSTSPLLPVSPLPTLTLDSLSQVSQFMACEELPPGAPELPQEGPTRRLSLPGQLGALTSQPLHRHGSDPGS
row,Compound,"hERG current change (%, negative = inhibition) at 1uM [%]"
1,COc1ccccc1-c1noc(Cn2cc(S(=O)(=O)N3CCCC3)ccc2=O)n1,3.6
2,O=C(c1cccc(Cl)c1)c1nn(-c2ccccc2)c(=O)cc1C(F)(F)F,14.4
3,Cn1c2ccccc2c(=O)c2c(=O)n(C3CCCCC3)c(-c3cccs3)nc21,0.315
4,O=C(NNC(=O)c1ccccc1O)c1ccc(-c2ccc([N+](=O)[O-])cc2)o1,12.9
5,CCC(C)Sc1ccc([C@H]2N[C@@](CC(C)C)(C(=O)OC)[C@H]3C(=O)N(CC)C(=O)[C@@H]23)cc1.O=C(O)C(F)(F)F (stereo partly drawn),-2.07
6,CC(C)NC(=O)N(O)C1N(C(C)C)C(=O)N(Cc2ccc3c(c2)OCO3)C1(C)C (stereo not drawn),18.1
7,COCCn1c(SCc2ccc(Cl)cc2)nc2c1c(=O)[nH]c(=O)n2C,12.9
8,Cc1ccc(NC(=O)NC2CCCN2S(=O)(=O)c2ccc(Cl)cc2)cc1 (stereo not drawn),-13.3
9,O=C(Nc1ccc(N2CCOCC2)cc1)c1ccc2nc(-c3ccco3)c(-c3ccco3)nc2c1,0.933
10,CC1(C)Cc2ccccc2C(=O)N1,12.4
11,Cc1ccc(S(=O)(=O)NC(=NC(Cc2ccccc2)C(=O)O)c2ccccc2)cc1 (stereo not drawn),6.63
12,NC(=O)C1CCN(C(=O)c2ccc(Cl)c(S(=O)(=O)NCc3ccco3)c2)CC1,7.34
13,Cc1ccc2nc(C)cc(N3CCOCC3)c2c1.Cl,-3.17
14,CC(=O)c1cccc(NC(=O)C2CCN(C(=O)c3ccccc3Cl)CC2)c1,13.1
15,O=C(COc1ccccc1[N+](=O)[O-])N(Cc1ccco1)C1CCS(=O)(=O)C1 (stereo not drawn),5.14
16,Cc1cc(NC(=O)CCCn2ccc([N+](=O)[O-])n2)n(Cc2ccc(F)cc2)n1,2.72
17,Cc1cccc(C)c1NC(=S)N1CCCCCC1,10.2
18,Cc1ccc(-c2ccc(=O)n(CC(=O)NCCCN3CCCCC3)n2)cc1,1.65
19,Cc1ccc(C)c(NC(=O)C(=O)NCCCN2CCOCC2)c1,6.58
20,COC(=O)c1[nH]c2c(c1C)C(=O)CC(c1cccs1)C2 (stereo not drawn),12.7
21,CC1CCCC(C)N1S(=O)(=O)c1ccc(NC(=O)CCn2cnc3ccccc3c2=O)cc1 (stereo not drawn),5.42
22,CC1(C)CC(=O)CC2(C1)NCC(c1ccccc1)c1c2[nH]c2ccccc12.Cl (stereo not drawn),-83.4
23,Cc1nc(N2CCOCC2)sc1C=O,0.997

row,Compound,"hERG current change (%, negative = inhibition) at 1uM [%]"
1,O=C(O)CCc1nc2ccccc2n(CCc2ccccc2)c1=O,10.5
2,COc1ccc(C2c3c(ncn(CCCO)c3=N)Oc3ccc4ccccc4c32)cc1 (stereo not drawn),0.449
3,COc1nsnc1NS(=O)(=O)c1ccc(NC(=S)NC(=O)c2ccncc2)cc1,8.9
4,CC1CCCC(C)N1C(=O)COC(=O)c1cccc(S(=O)(=O)N(C)c2ccccc2)c1 (stereo not drawn),7.4
5,COc1ccc2oc(=O)cc(-c3cc4ccccc4o3)c2c1,-1.03
6,Nc1cnn(-c2ccccc2)c(=O)c1Cl,15.9
7,COc1ccc(-n2c(-c3ccc(Br)cc3)c[n+]3c2CCC3)cc1.[Br-],-21
8,COc1ccc(/C=N/NC(=O)CN2CCSCC2)c(OC)c1,8.06
9,Cc1cccc(NC(=S)c2nc3ccccc3s2)c1,10.5
10,CCOc1ccccc1Oc1c(C)oc2c(CN3CCN(CCO)CC3)c(O)ccc2c1=O,13.7
11,O=C(NCc1ccco1)c1nc2ccccc2s1,8.2
12,Cc1cccc(NC(=O)Nc2ccc([N+](=O)[O-])cc2)n1,9.91
13,Cc1nn(C(C)C(=O)N2CCOCC2)c(=O)c2nn(-c3ccccc3)c(C)c12 (stereo not drawn),-1.97
14,CC(Oc1ccc(Cl)cc1Cl)C(=O)Nc1ccc(S(=O)(=O)Nc2cnc3ccccc3n2)cc1 (stereo not drawn),12.8
15,Cc1ccccc1CN(C)CCc1ccccn1.O=C(O)C(=O)O,8.94
16,COc1cc(S(=O)(=O)NC2CCCC2)c(OC)cc1C,2.99
17,S=C(NCc1ccncc1)Nc1ccc(Br)cc1,9.63
18,CN1C(=O)C2(c3ccccc31)c1c(oc3ccccc3c1=O)C(=O)N2CCO (stereo not drawn),7.4
19,COc1ccc(C(=O)C2CCCN(C(=O)Cn3ccc(C)n3)C2)cc1OC (stereo not drawn),3.89
20,COCC(C)NS(=O)(=O)c1ccccc1 (stereo not drawn),14.1
21,O=C(CN1CCN(c2ccc(Cl)cc2)CC1)Nc1ccc(F)c(F)c1,-1.8
22,CCCN=C(N)/C(C(=O)OCC)=C(\O)c1ccc(OC)cc1,-2.28
23,COC(=O)CCC(=O)Nc1nnc(C(F)(F)F)s1,14.4

row,Compound,"hERG current change (%, negative = inhibition) at 1uM [%]"
1,Cc1cc(C(=O)COC(=O)c2ccc3c(c2)OCO3)c(C)n1Cc1cccs1,18.4
2,COCC(C)NC(=O)CCc1nnc(C2(c3ccc(Cl)cc3)CCC2)o1 (stereo not drawn),12.5
3,CCOc1ccc(CCNC(=O)Cn2cccc2C(=O)c2ccccc2)cc1OCC,3.1
4,CC1CCCCC1NC(=O)COC(=O)c1ccccc1NC(=O)c1ccco1 (stereo not drawn),3.75
5,Cn1c(SCC(=O)c2ccccc2)nnc1-c1ccncc1,13.7
6,O=S(=O)(Nc1cccc2ccccc12)N1CCCC1,8.62
7,Cc1csc(NC(=O)CN2CCCCCC2)n1.O=C(O)C(=O)O,15.5
8,COC(=O)c1cc(OC)c(OC)c(OC)c1N,12.2
9,Cc1ccccc1OCC(=O)NCC(c1cccs1)N1CCOCC1 (stereo not drawn),3.3
10,O=C(COC(=O)C1=COCCO1)NC1CCCCCCC1,8.14
11,CN(C1CCS(=O)(=O)C1)S(=O)(=O)c1ccccc1[N+](=O)[O-] (stereo not drawn),6.34
12,Cc1ccc2c(c1)-c1c(cnn1CC(=O)NC(C)CCc1ccco1)CO2 (stereo not drawn),9.65
13,O=P(NCc1ccccc1)(Oc1ccccc1)Oc1ccccc1,2.22
14,CN(C)CCCNCC(=O)Nc1ccc(Cl)cc1C(=O)c1ccccc1.O=C(O)C(=O)O,-21.2
15,CC(C)CNS(=O)(=O)c1ccc(CCC(=O)NCc2ccco2)cc1,9.96
16,Cn1c(=O)c2c(nc(OCC3COC(C)(C)O3)n2Cc2ccccc2F)n(C)c1=O (stereo not drawn),-0.0798
17,Cc1ccc(C)c(NC(=O)CSc2cccc3cccnc23)c1,13.8
18,CCOC(=O)CSc1nc2ccccc2n2cnnc12,9.64
19,Cc1ccc(NC(=O)C2C3CCC(O3)C2C(=O)O)cc1C (stereo not drawn),9.77
20,O=C(Oc1nsnc1N1CCOCC1)N1CCCCC1,7.7
21,COC(=O)C(CCSC)NS(=O)(=O)c1ccc(Cl)cc1 (stereo not drawn),5.89
22,CC(C)/C=N/NC(=O)c1cccc(N2CCCC2=O)c1,6.05
23,CCCn1nc(C(=O)OCC(=O)c2ccccc2)c2ccccc2c1=O,3.49

row,Compound,"hERG current change (%, negative = inhibition) at 1uM [%]"
1,COC(=O)c1cc(OC)c(OC)cc1NC(=O)CSc1ccccc1,11.3
2,CCN(Cc1ccccc1)C(=O)CSc1nncn1C,6.6
3,C/C(Cc1ccccc1)=N\NC(=O)CCCCCC(=O)N/N=C(\C)Cc1ccccc1,10.8
4,O=C1c2ccccc2C(=O)N1c1ccc(S(=O)(=O)N2CCCCC2)cc1,16.3
5,Cl.NCCc1nnc(SCc2ccc(F)cc2)o1,2.72
6,C=CCN(C(=O)Cn1nnc2ccccc21)C(C(=O)NCCOC)c1ccc(OC)cc1OC (stereo not drawn),11.7
7,COc1ccc(COC(=O)c2cc(S(=O)(=O)N3CCCCC3)ccc2N2CCOCC2)cc1,7.08
8,Cc1cc(OCC(=O)Nc2nccs2)c2c(C)cc(=O)oc2c1,11.1
9,CN(C)C(=O)Oc1ccnc2cc(Cl)ccc12,6.33
10,CC(C)(C)C(=O)NC(=S)Nc1ccc(F)cc1,10.8
11,CC(C)NC(=O)COC(=O)c1ccc(Oc2ccccc2)cc1,9.38
12,Cc1cc(NC(=O)C2CCN(S(=O)(=O)c3cnc[nH]3)CC2)ccc1Br,11.3
13,CCOCCCNC(=O)CCC(=O)NNc1nc2ccccc2c2nc(-c3ccccc3)nn12,-2.83
14,COc1ccc(NC2CCCN(C(=O)c3cccnc3SC)C2)cc1OC (stereo not drawn),8.52
15,CCn1cc(C(=O)N2CCN(c3ccc(OC)cc3)CC2)c2cc(OC)c(OC)cc2c1=O,5.58
16,O=C1CN(C(=O)c2cccc(S(=O)(=O)N3CCCC3)c2)c2ccccc2N1,19.2
17,CCOc1cc(N2CCOCC2)c(OCC)cc1NC(=O)[C@H](C)NC(=O)c1ccco1,14.8
18,Cc1ccc(C(=O)NCC(=O)OCC(=O)N2CC(C)OC(C)C2)cc1 (stereo not drawn),0.705
19,COc1ccc(N(CC(=O)N2CCCC2)S(C)(=O)=O)cc1,17.4
20,COc1ccc(NC(=O)c2oc3ccc(S(=O)(=O)N4CCC5(CC4)OCCO5)cc3c2C)cc1,4.23
21,CC(=O)c1ccc(N2CCN(C(=O)CCS(=O)(=O)c3ccc4c(c3)CCN4C(C)=O)CC2)cc1,22.8
